This experiment is described as follows: qHTS Assay for Lipid Storage Modulators (AID 1519). Conditions: Drosophila S3 cells, BODIPY lipid droplet/cell ratio, laser cytometry, cells loaded with oleic acid. A digest of the protocol:
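Cells seeded at 5,000 per well were treated with compounds over a concentration series and loaded with oleic acid (400 uM, as added). Lipid droplet fluorescence (488 nm excitation, 500-530 nm channel) was read by laser-scanning cytometry and normalized to 20 uM Triacsin C.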
(In general: Quantitative high-throughput screening tests each substance at several concentrations.)

Where [1] appears, read: measured here: cell count channel max response.
Where [2] appears, read: measured here: lipid (BODIPY) channel AC50.
Where [3] appears, read: measured here: lipid channel max response.
Setting [4] is: measured here: cell number channel AC50.

The other results are listed elsewhere or left out. Shown are side measurements of this screen, not its main read-out; they come without a call. Compounds called inactive in the main read-out are mostly missing here. The note in brackets gives the kind of curve behind each potency; many fits are weak.

Broadly, the AC50 is the concentration giving half of the maximal activity seen.
Tags tell the direction and shape of the fitted curve.

Consider `CN1CCN(c2ncnc3ccc(-c4ccccc4C(F)(F)F)cc23)CC1`, for which the max response was -22.2% under setting [1] and -42.9% under setting [3]. Further, the concentration at half-maximal activity (AC50) under setting [2] was 39.8 µM [falling, single point].

As for `COC(=O)CC1C(C)(C)C(=O)C2CC3C4=CC(=O)OC(c5ccoc5)[C@]4(C)CCC3[C@@]1(C)C2=O` (stereo not given in full), the max response amounted to 18.8% under setting [1] and 33.8% under setting [3]. Under setting [2], the half-maximal activity concentration (AC50) is 25.1 µM [rising, single point].

Turning to `CC(C)NC(=O)N1CCCC2(CCN(C(=O)c3ccco3)CC2)C1`, the max response reads like this: under setting [1], 13.2%; under setting [3], 18.5%. In addition, under setting [2], the AC50 was 3.98 µM [rising, partial curve, poor fit].

As to `Cn1c(=O)c(CCc2ccccc2)nc2cnc(N3CCOCC3)nc21`, the max response is, setting by setting: under setting [1], 23.3%; under setting [3], 30%. Further, the concentration at half-maximal activity (AC50) under setting [2] is 0.794 µM [rising, full curve].

As to `CN1CCC(OC(c2ccccc2)c2ccccc2)CC1`, the max response under setting [1] amounted to 27.7% and the max response under setting [3] came out at 41.4%. In addition, the concentration at half-maximal activity (AC50) under setting [2] is 39.8 µM [rising, single point].

Turning to `CN(C)C(=O)c1ccc(-c2nccc(Nc3ccc(F)cc3)n2)cc1`, the max response stood at 19.9% under setting [1] and 29.6% under setting [3]. Further, under setting [2], the AC50 was 0.891 µM [rising, full curve, poor fit].

Take `COc1cc2c(cc1OC)-c1cc3ccc(OC)c(OC)c3c[n+]1CC2`: the max response under setting [1] amounted to 28.8% and the max response under setting [3] is 40.4%. Besides, under setting [2], the AC50 is 20 µM [rising, partial curve].

With `N#Cc1cccc(NC(=O)N2CCC3(CC2)CCN(C(=O)c2cnccn2)CC3)c1`, the max response stood at 28% under setting [1] and 36.7% under setting [3]. Further, under setting [2], the AC50 was 0.00631 µM [rising, full curve, poor fit].

As to `NC(C(=O)O)C(O)C(=O)O` (stereo not given), the max response under setting [1] was found to be 29.8% and the max response under setting [3] stood at 46.5%. In addition, the AC50 under setting [2] was 39.8 µM [rising, single point].

With `CCC(C)(C)C(=O)O[C@@H]1C[C@@H](C)C=C2C=C[C@H](C)[C@H](CC[C@@H]3C[C@@H](O)CC(=O)O3)[C@H]21`, the max response turned out to be 39.3% under setting [1] and 42.8% under setting [3]. The AC50 under setting [4] is 31.6 µM [rising, single point].

Turning to `O=C(c1cccc(F)c1)N1CCC2(CC1)CCN(c1ccc(-c3ccccc3)cc1)CC2`, the max response under setting [1] came out at 18.6% and the max response under setting [3] came out at 27%. The AC50 under setting [2] is 5.01 µM [rising, partial curve].

For the molecule `COc1cccc(-c2cc(=O)c3ccc(OC)cc3o2)c1`, the max response under setting [1] was found to be 2.82% and the max response under setting [3] was found to be 12.8%. Under setting [2], the AC50 was 0.562 µM [rising, full curve].

Take `COc1ccc(C(=O)N2CCC3(CCCN(Cc4nccs4)C3)CC2)cc1`: the max response by setting is: under setting [1], 26.5%; under setting [3], 39.9%. Under setting [2], the AC50 is 0.355 µM [rising, full curve].

Take `Cc1noc(C)c1-c1ccc2ncnc(N3CCC(C(=O)O)CC3)c2c1`: the max response runs as follows: under setting [1], 29.8%; under setting [3], 35.6%. Besides, the concentration at half-maximal activity (AC50) under setting [2] was 28.2 µM [rising, single point].

Regarding `CN(C)c1ccc(-c2cc(NCc3ccccc3)ncn2)cc1`, the max response by setting is: under setting [1], -13.9%; under setting [3], -32.7%. Also, the AC50 under setting [2] is 39.8 µM [falling, single point].

`CN(C)c1cc(-c2cccc(NS(C)(=O)=O)c2)ncn1`: the max response reads like this: under setting [1], 27.6%; under setting [3], 32.7%. Besides, the half-maximal activity concentration (AC50) under setting [2] was 7.94 µM [rising, partial curve].

Consider `N[C@@H](Cc1cc(-c2ccc(Cl)cc2Cl)cc(CP(=O)(O)O)c1O)C(=O)O`, for which the max response is 32.2% under setting [1] and 27.9% under setting [3]. The half-maximal activity concentration (AC50) under setting [4] was 22.4 µM [rising, full curve, poor fit].

In the case of `O=C(O)c1cc2cc(Cc3cccnc3)ccc2o1`, the max response by setting is: under setting [1], 61.6%; under setting [3], 64.4%. Further, the AC50 under setting [4] was 7.08 µM [falling, partial curve, poor fit].

Regarding `C[C@H]1C[C@@H]2[C@H]3CCC4=CC(=O)C=C[C@@]4(C)[C@@]3(Cl)[C@@H](O)C[C@]2(C)[C@]1(OC(=O)c1ccco1)C(=O)CCl`, the max response is 7.78% under setting [1] and -37.4% under setting [3]. For the same molecule, under setting [2], the AC50 is 15.8 µM [falling, single point].

With `CS(=O)(=O)Nc1cccc(-c2nc(NCc3ccccc3)c3ccccc3n2)c1`, the max response reads like this: under setting [1], 21.7%; under setting [3], 29.9%. Besides, the AC50 under setting [2] was 1 µM [rising, full curve, poor fit].

In the case of `COC(=O)N1CCC2(CCCN(C(c3ccccc3)c3ccccc3)C2)CC1`, the max response under setting [1] came to 19.8% and the max response under setting [3] was found to be 31.6%. The AC50 under setting [2] was 11.2 µM [rising, partial curve, poor fit].

As to `COc1cccc(-c2cc(=O)c3cc(O)ccc3o2)c1`, the max response by setting is: under setting [1], 72.9%; under setting [3], 123%. The AC50 under setting [2] was 4.47 µM [rising, partial curve].

With `COCCn1c(=O)c(-c2cc(F)cc(F)c2)nc2cnc(N(C)C)nc21`, the max response reads like this: under setting [1], 17.2%; under setting [3], 24.7%. In addition, the AC50 under setting [2] was 3.16 µM [rising, full curve, poor fit].

As to `FC(F)(F)c1ccccc1-c1cncnc1-n1ccnc1`, the max response under setting [1] turned out to be 23% and the max response under setting [3] came out at 27.6%. Besides, the AC50 under setting [2] was 0.316 µM [rising, full curve].

As to `COCCNc1nc(-c2ccc(N(C)C)cc2)nc2ccccc12`, the max response was -8.58% under setting [1] and -18.2% under setting [3]. The AC50 under setting [2] was 0.0316 µM [rising, full curve, poor fit].

Regarding `O=c1cc(-c2cccc(O)c2)oc2cccc(O)c12`, under setting [4], the concentration at half-maximal activity (AC50) is 15.8 µM [rising, partial curve, poor fit].

Consider `COc1ccc(-c2nc3cnc(Nc4ccccc4)nc3n(CCC#N)c2=O)cc1`, for which the AC50 under setting [4] is 20 µM [rising, partial curve, poor fit].

Regarding `COc1ccc(-c2nc3cnc(OC)nc3n(CCC#N)c2=O)cc1`, the max response was found to be 26.8% under setting [1] and 32.5% under setting [3]. For the same molecule, the AC50 under setting [2] was 0.282 µM [rising, full curve, poor fit].

(Values after PubChem BioAssay (NCATS).)
